According to PubChem BioAssay AID686978 (National Center for Advancing Translational Sciences (NCATS), 2013):
Among all 420,000 compounds or so, about 64,000 (15%) were called active. Inconclusive means that the source gave no clear call. Such entries were picked first, then a sample of the others. The call rests on the fitted dose curve; in most records, active means well fitted inhibition curve with a large enough effect; inconclusive means small, poorly fitted or top-dose-only effect; inactive means flat fitted curve, though single readings scatter. No potency is given beside an inconclusive call; the fits are too rough. Some structures have more than one record in an assay (separate samples or runs), and their calls can disagree.

Assay: qHTS for Inhibitors of human tyrosyl-DNA phosphodiesterase 1 (TDP1): qHTS in cells in absence of CPT; further: nearly all actives have a fitted effect of over 55% in size
Details: DT40 Tdp1-/- hTDP1 cells, no CPT, ATP luminescence, 48 h; activity change, negative = growth inhibition: at 46.2 µM (top of the series) unless noted
In short: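 Luminescent ATP content (CellTiter-Glo) served as the growth readout. Knockout chicken DT40 cells expressing human TDP1 were exposed to compounds without camptothecin for a minimum 48 hr at 37 °C.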
On the % scale 0 is the no-effect control and ±100 the full control effect; potency means the concentration at half of the fitted maximal effect; tags describe the fitted curve by direction and shape.

Structure (SMILES)	Potency	activity change, negative = growth inhibition
CCc1[nH]nc(C(=O)NC2CCCc3c2cnn3-c2cc(C)cc(C)c2)c1C (stereo unspecified)	inconclusive [inhibitor, single point]	–
O=C(O)c1cc(=O)c2c3nc4ccccc4oc-3cc(=O)c2[nH]1	active: 11.2 µM	–
c1ccc(NC(=NCc2ccco2)c2ccccc2)cc1	–	inconclusive: -30.6% [inhibitor]
CSc1ccc(/C=C(\NC(=O)c2ccc(C)cc2)C(=O)NN)cc1	–	inactive: 3.85%
O=C(NC1CCCCC1)c1nc2c(nnn2Cc2ccccc2Cl)c(=O)[nH]1	inconclusive [inhibitor, single point]	–
CC1CCN(c2nc3c(c(=O)[nH]c(=O)n3C)n2CCCc2ccccc2)CC1	inconclusive [inhibitor, single point]	–
Cc1ccc(C(=O)N2CCN(c3ccc(NC(=S)NC(=O)Cc4ccccc4)cc3)CC2)cc1	inconclusive [inhibitor, single point]	–
C/C(Cn1nnc([N+](=O)[O-])n1)=N\NC(=O)c1ccc(O)cc1	active: 13 µM	–
Cc1ccc(Nc2nc(N3CCOCC3)nc(N3CCOCC3)n2)cc1Cl	inconclusive [inhibitor, single point]	–
COc1ccc(-c2csc(Nc3cc(C)ccn3)n2)cc1OC	inconclusive [inhibitor, single point]	–
Cc1ccsc1-c1nc(CN(C)C(C2CC2)C2CC2)c(C)o1	inconclusive [inhibitor, partial curve]	–
OCCOCCn1c(C(CO)Nc2nc(-c3ccc(F)cc3)cs2)nc2ccccc21 (stereo unspecified)	inconclusive [inhibitor, single point]	–
COc1cccc(S(=O)(=O)N(C)C[C@H]2Oc3ncc(Br)cc3C(=O)N([C@@H](C)CO)C[C@@H]2C)c1	inconclusive [inhibitor, single point]	–
O=C(c1ccco1)N1CCN=C1SCc1ccccc1F	–	inactive: -6.69%
NC(=S)NC(=O)/C=C/c1ccccc1	inconclusive [inhibitor, partial curve]	–
O=S(=O)(c1ccc(Cl)cc1)N1CCN(c2ccccn2)CC1	–	inactive: 1.21%
CN1CCN(C2=Nc3ccccc3Sc3ccc(Cl)cc32)CC1	active: 10.6 µM	–
CCN(CC)C(=O)C1=C(C)N(Cc2ccc(C(C)(C)C)cc2)C(=O)C(CC(=O)NC2CCCC2)C1 (stereo unspecified)	–	inactive: -80.6%
COc1ccc(-c2cc(NC=O)c3ncc(-c4ccc(C(C)=O)cc4)n3c2)cn1	active: 7.31 µM	–
CCCNC(=O)C1(C)CCCN(Cc2cccn2C)C1 (stereo unspecified)	–	inactive: 0.789%
COC(=O)c1c(-c2cccs2)csc1NC(=O)c1ccc(C)cc1	inconclusive [inhibitor, single point]	–
O=C(Cn1c(-c2cccs2)cc2ccccc21)N1CCN(c2ccc(F)cc2)CC1	inconclusive [inhibitor, single point]	–
Cc1ccc(CNS(=O)(=O)c2ccc3c(c2)CC(C)N3C(=O)C2CCC2)cc1 (stereo unspecified)	active: 20.6 µM	–
COc1ccc(OC)c(C(=O)CN2C(=O)N(c3ccc(C)cc3)S(=O)(=O)c3ccccc32)c1	–	inactive: -23.6%

Structure (SMILES)	Potency	activity change, negative = growth inhibition
C=CCn1c(SCc2cccc(OC)c2)nnc1-c1ccncc1	–	inconclusive: -34.6% [inhibitor]
CCc1c(C)nc2ncnn2c1N1CCC(C(=O)NCc2cccs2)CC1	inconclusive [inhibitor, partial curve, poor fit]	–
O=C(c1ccc(-c2ccc([N+](=O)[O-])cc2)o1)N1CCCCCCC1	active: 10.3 µM	–
COc1ccc(-c2[nH]ncc2CN2CCC(N3CCSCC3)CC2)cc1F	–	inactive: -13%
CC1(Cc2ccccc2OC(F)(F)F)C(=O)Nc2cc(-c3ccccc3Cl)ccc21 (stereo unspecified)	inconclusive [inhibitor, single point]	–
O=C(NCc1ccccc1)C1=C[C@@H](c2csc3ccccc23)C[C@@H](OCc2ccc(CO)cc2)O1	active: 4.61 µM	–
CN(C)C=Nc1nonc1-c1ncn[nH]1	–	inactive: -15.3%
S=c1[nH]ncn1/N=C/c1ccccn1	–	inactive: -15.9%
CCC(=O)N(C(=O)CC)N1CCN(c2ccncc2S(=O)(=O)N2CCCCC2)CC1	–	inconclusive: -31% [inhibitor]
CC1CCN(C(=O)c2ccc(CS(=O)(=O)Cc3ccccc3)cc2)CC1	inconclusive [inhibitor, single point]	–
COc1ccccc1NC(=O)Cn1c(=O)n(CC2CCC(C(=O)NCCc3ccccc3)CC2)c(=O)c2ccccc21 (stereo unspecified)	inconclusive [inhibitor, single point]	–
COc1ccc(OC)c2c(C)cc(N3CCCCCC3)nc12	active: 9.2 µM	–
CC(=O)Nc1ccc(S(=O)(=O)N(C)c2ccccc2)cc1	–	inactive: -5.88%
O=C(c1ccc2c(c1)OCO2)N(CC1CCCO1)C1(C(=O)NC2CCCC2)CCCCC1 (stereo unspecified)	inconclusive [inhibitor, single point]	–
COc1ccccc1-c1nccc(NCc2cccc(C)c2)n1	active: 10.3 µM	–
CCN(CC)CCn1c2c(c(SCC(=O)Nc3ccc4c(c3)OCO4)nc1=O)CCC2	–	inconclusive: -34.4% [inhibitor]
CCc1ccc(NC(=O)Cn2c(=O)n(CCCC(=O)NCCc3ccc(OC)c(OC)c3)c(=O)c3ccccc32)cc1	inconclusive [inhibitor, single point]	–
CC(C)(C)OC(=O)N1CCCC(C(=O)Nc2ccc(C(=O)N3CCCC3)cc2)C1 (stereo unspecified)	inconclusive [inhibitor, single point]	–
Cc1nnc(SCC(=O)Nc2ccc(N(C)C)cc2)[nH]c1=O	inconclusive [inhibitor, single point]	–
CCOC(=O)N1CCc2c(sc3c2C(=O)NC(c2ccc(C(=O)OC)cc2)N3)C1 (stereo unspecified)	active: 13 µM	–
C=CCNC(=S)NNC(=O)C(CC(C)C)CC(C)O (stereo unspecified)	inconclusive [inhibitor, single point]	–
O=C(NCCC1=CCCCC1)c1cccc(S(=O)(=O)N2CCCCC2)c1	active: 23.1 µM	–
CCC(C)NC(=O)c1ccccc1NC(=O)COc1ccc(OC)cc1 (stereo unspecified)	inconclusive [inhibitor, single point]	–
CCCCNC(=O)/C=C1\Sc2ccccc2NC1=O	inconclusive [inhibitor, single point]	–

Structure (SMILES)	Potency	activity change, negative = growth inhibition
O=C(CN1CCOCC1)Nc1scc2c1c(=O)oc1ccccc12	inconclusive [inhibitor, partial curve]	–
CCN(CC)CCOC(=O)c1ccc(NC(=O)c2cc3cc(OC)ccc3oc2=O)cc1	active: 0.0058 µM	–
C[C@@H]1CCCCO[C@H](CN(C)Cc2ccc(C(F)(F)F)cc2)[C@@H](C)CN([C@H](C)CO)C(=O)c2cc(NS(=O)(=O)c3cn(C)cn3)ccc2O1	inconclusive [inhibitor, single point]	–
COc1ccccc1NS(=O)(=O)c1cccc(C(=O)N2CCN(Cc3ccc4c(c3)OCO4)CC2)c1	inconclusive [inhibitor, single point]	–
COc1cccc(NC(=O)C(=O)NCC(c2ccco2)N2CCc3ccccc3C2)c1 (stereo unspecified)	inconclusive [inhibitor, single point]	–
Cc1no[n+]([O-])c1COc1ccc(/C=N/n2nnnc2N)cc1	inconclusive [inhibitor, partial curve]	–
Nc1c(N2CCCCC2)c2ccccc2oc1=O	–	inactive: -7.75%
CC(C)Oc1cccc(C(=O)C2CCCN(Cc3cccn3-c3ccccn3)C2)c1 (stereo unspecified)	inconclusive [inhibitor, single point]	–
C=CCNc1nc(NCCOC)c2sc(-c3ccccc3)cc2n1	active: 13 µM	–
Cc1ccc(-c2nc3ccccn3c2C=O)cc1	inconclusive [inhibitor, full curve, poor fit]	–
CN(C)C(=O)c1ccc(-c2cncnc2Nc2ccc(F)cc2)cc1	–	inactive: 7.56%
O[C@@H]1CN(Cc2cccs2)[C@@H](c2ccc(Cl)cc2)C[C@H]1n1cc(C2CC2)nn1	inconclusive [inhibitor, single point]	–
COc1ccc(OC)c(N=c2oc3cc(O)ccc3cc2C(N)=O)c1	inconclusive [inhibitor, partial curve]	–
CC(C)Cc1ccc(C(C)C(=O)Nc2ncccn2)cc1 (stereo unspecified)	inconclusive [inhibitor, single point]	–
O=C(CSc1ccccc1F)NC(=O)NC1CCCC1	inconclusive [inhibitor, single point]	–
COc1ccccc1NCC(=O)N/N=C/C=C/c1ccccc1	–	inconclusive: -34.4% [inhibitor]
CC(=O)NC12CC3CC(C1)CC(C(=O)OCC(=O)c1ccc4c(c1)OCCO4)(C3)C2	inconclusive [inhibitor, single point]	–
Clc1ccc(C2=NCCn3nc4ccccc4c32)cc1	inconclusive [inhibitor, single point]	–
CCOc1ccc(Sc2cc(C(=O)NCc3ccccc3Cl)c3ccccc3n2)cc1	active: 13 µM	–
Cc1ccc(CN(C)C(=O)C2CCC(=O)N(C3CCCCCC3)C2)cc1 (stereo unspecified)	–	inactive: -26.5%
CN(CC(=O)N1CCN(Cc2ccccc2)CC1)C(=O)Cc1ccc(Cl)c(Cl)c1	active: 14.6 µM	–
Cc1ccc(-c2cc3nc4c(c(=O)n3[nH]2)CCCC4)cc1	inconclusive [inhibitor, partial curve]	–
Cc1ccccc1NC(=O)CCn1nc(-c2ccccc2)c2ccccc2c1=O	inconclusive [inhibitor, single point]	–
